# Measurements from article PMC4336329 (PLoS ONE, 2015).
# The campaign covered roughly 310,000 compounds. About 2,200 (0.71%) showed an effect of 50% or more. Effects have a minus sign here. The list shows a part of the results.
# Molecular target: human ether-à-go-go-related gene (hERG) potassium channel (human, UniProt Q12809)
# Experiment: primary screen, population patch clamp on CHO cells stably expressing hERG
# Sequence of human ether-à-go-go-related gene (hERG) potassium channel (Q12809 whole entry, looked up): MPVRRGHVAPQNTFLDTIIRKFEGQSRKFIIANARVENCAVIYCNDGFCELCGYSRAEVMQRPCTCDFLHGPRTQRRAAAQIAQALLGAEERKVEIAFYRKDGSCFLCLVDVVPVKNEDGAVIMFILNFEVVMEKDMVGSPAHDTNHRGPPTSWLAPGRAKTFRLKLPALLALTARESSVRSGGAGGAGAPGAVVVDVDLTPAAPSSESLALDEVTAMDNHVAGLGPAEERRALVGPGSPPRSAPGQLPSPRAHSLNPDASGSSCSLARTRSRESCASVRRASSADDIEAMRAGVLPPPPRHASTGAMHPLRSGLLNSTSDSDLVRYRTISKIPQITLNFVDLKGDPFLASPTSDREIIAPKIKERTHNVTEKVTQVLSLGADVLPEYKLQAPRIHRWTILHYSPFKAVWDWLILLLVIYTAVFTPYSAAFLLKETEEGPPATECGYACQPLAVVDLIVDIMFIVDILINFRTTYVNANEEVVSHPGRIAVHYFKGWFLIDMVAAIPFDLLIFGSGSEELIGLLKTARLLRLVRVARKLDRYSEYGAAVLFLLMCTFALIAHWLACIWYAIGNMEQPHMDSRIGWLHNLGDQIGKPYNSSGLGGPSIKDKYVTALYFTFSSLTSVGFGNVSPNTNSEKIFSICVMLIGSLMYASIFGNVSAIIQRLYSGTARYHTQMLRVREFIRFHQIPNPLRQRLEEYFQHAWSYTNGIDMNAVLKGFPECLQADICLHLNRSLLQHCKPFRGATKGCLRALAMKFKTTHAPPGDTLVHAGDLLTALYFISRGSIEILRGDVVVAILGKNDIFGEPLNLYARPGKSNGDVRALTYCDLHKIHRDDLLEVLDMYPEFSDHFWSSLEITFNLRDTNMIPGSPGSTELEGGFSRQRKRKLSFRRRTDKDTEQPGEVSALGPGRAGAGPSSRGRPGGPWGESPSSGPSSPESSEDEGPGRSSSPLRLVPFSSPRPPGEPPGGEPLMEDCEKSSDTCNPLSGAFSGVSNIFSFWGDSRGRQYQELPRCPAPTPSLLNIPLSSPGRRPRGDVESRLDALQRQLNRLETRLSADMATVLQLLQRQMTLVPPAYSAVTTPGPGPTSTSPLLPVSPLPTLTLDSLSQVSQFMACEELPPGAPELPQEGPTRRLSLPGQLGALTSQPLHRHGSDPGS
row,SMILES,"hERG current change (%, negative = inhibition) at 1uM"
1,COc1ccc(-n2nc3c(N4CCC(C(=O)NCC(C)c5ccccc5)CC4)nnc(C)c3c2C)cc1 (stereo not drawn),8.32%
2,CC1CCCN(C(=O)c2ccc(OC3CCN(CCc4ccccc4)CC3)cc2)C1 (stereo not drawn),-30.3%
3,O=C(NC12CC3CC(CC(C3)C1)C2)c1ccco1,7.87%
4,C/C(CC(=O)Nc1cccnc1)=N/NC(=O)COc1ccc(Cl)cc1Br,10.5%
5,CCC/C(=N/Nc1ccc(Cl)cc1)c1cnnc(-c2ccccc2)n1,-13.1%
6,CC(=O)Nc1ccc(Oc2cc(NC(C)=O)cc([N+](=O)[O-])c2)cc1,14.7%
7,CCCCCCOc1ccc(OC(=O)c2ccncc2)cc1,2.34%
8,CCOC(=O)N1CCN(S(=O)(=O)N2CCCC(C(=O)NCCCN3CC(C)CC(C)C3)C2)CC1 (stereo not drawn),13.7%
9,Cc1ccc(S(=O)(=O)N2CCN(C(=O)c3cccc(-n4cccc4)c3)CC2)cc1,-8.86%
10,COc1ccc(CCNC(=O)CSc2nnnn2C)cc1OC,12.4%
11,COC(=O)C1=C(N)Oc2c(oc(CO)cc2=O)C1c1ccccc1F (stereo not drawn),12%
12,CCn1ncc([N+](=O)[O-])c1C(=O)Nc1ccc(C)c(C)c1,1.48%
13,COCCN(C(=O)CC1CCCC1)c1c(N)n(CC(C)C)c(=O)[nH]c1=O,4.68%
14,COC(=O)C1=C(c2ccc(C(C)=O)cc2)C[C@@H]2CC[C@H]1N2C(=O)NCCNC(C)=O,19.5%
15,Cc1ccc(CN2CCN(Cc3ccccc3F)CC2)cc1.O=C(O)C(=O)O,10.4%
16,Cc1cc(C)c(NC(=O)COc2nc3ccccc3nc2C)c(C)c1,17.9%
17,CC1(C)CC(=O)C2=C(C1)OC(N)=C(C#N)C21C(=O)N2CCCc3cccc1c32 (stereo not drawn),17.6%
18,COc1ccccc1CNC(=O)CCS(=O)(=O)Cc1ccc(C)cc1,10.6%
19,O=C(C1CCN(S(=O)(=O)N2CCCC2)CC1)N1CCCCC1,11.4%
20,Cc1occc1-c1nnc(SCC(=O)c2cc3ccccc3oc2=O)o1,8.01%
21,CC(=O)NC(Cc1cccc(F)c1)C(=O)NC1CCN(C(=O)Nc2ccccc2)CC1 (stereo not drawn),15.1%
22,O=C(NNC(=O)c1cc(-c2cccc(Br)c2)nc2ccccc12)c1csc(N2CCOCC2)n1,5.7%

row,SMILES,"hERG current change (%, negative = inhibition) at 1uM"
1,CCc1ccc(NC(=O)CSc2nnnn2C)cc1,19.7%
2,CCn1ncc([C@@H]2C[C@H]3CN(Cc4ccccc4C)C(=O)[C@]34CCCN24)c1C,11.9%
3,Cc1ccc2c(c1)[C@@H]1CN(C)CC[C@@H]1N2S(=O)(=O)c1ccc([N+](=O)[O-])cc1.Cl,-36.1%
4,O=S(=O)(c1ccc(NC(=S)NCc2ccc(F)cc2)cc1)N1CCOCC1,-5.23%
5,O=C(O)C1(c2ccccc2)CCN(S(=O)(=O)c2ccc(Br)cc2)CC1,14.4%
6,O=C(COC(=O)c1ncc(Cl)c(Cl)c1Cl)Nc1cccnc1Cl,17.7%
7,C=CCn1c(SCC(=O)c2ccc(O)c(O)c2)nnc1-c1cccnc1,15.3%
8,Cc1ccc(C(=O)OCC(=O)Nc2cccc(S(=O)(=O)N3CCCCC3)c2)o1,11.7%
9,NC(=S)Cc1nc2n(n1)Cc1ccccc1-2,12.2%
10,CCCCCCCNc1nc(Cl)nc(NCCO)n1,13.3%
11,Cc1cc(NC(=O)c2cc(-c3ccco3)on2)n(-c2ccccc2)n1,6.28%
12,COc1ccc(Cc2nnc(NC(=O)Cn3cnc4c3c(=O)n(C)c(=O)n4C)s2)cc1,12.9%
13,O=C(CCCc1nc(-c2ccccc2)no1)Nc1cccnc1,7.24%
14,CS(=O)(=O)N1CCN(C(=N)N[N+](=O)[O-])CC1,16.2%
15,COc1ccc(Cn2nnc3c(C)n[nH]c(=O)c32)cc1,17.3%
16,COc1ccc(CN2C3CCCC2CC(NC(=O)c2cccc(F)c2)C3)cc1 (stereo not drawn),-85.9%
17,CC(C(=O)NCc1ccccc1Cl)n1cc([N+](=O)[O-])cn1 (stereo not drawn),14.5%
18,CCCc1nc2oc3cc(OC)ccc3c(=O)c2c(=O)n1CCc1ccccc1,-4.03%
19,C=CCOc1ccc(/C=C/C(=O)OCC(=O)NCCCc2ccccc2)cc1,-3.81%
20,O=C(NCCN1CCN(c2ccccc2)CC1)C1CCN(S(=O)(=O)c2cccc3nsnc23)CC1,16.4%
21,Cc1c(C(C)(C)C)c(C=S)n2ccccc12,-9.18%
22,CC(OC(=O)c1cccc([N+](=O)[O-])c1)C(=O)NCc1ccc2c(c1)OCO2 (stereo not drawn),6.35%

row,SMILES,"hERG current change (%, negative = inhibition) at 1uM"
1,Cc1cc(NC(=O)CN(C)S(=O)(=O)c2cnc[nH]2)ccc1Br,9.32%
2,COC(=O)c1ccccc1NS(=O)(=O)c1c(C)noc1C,10.2%
3,CC(C)(C)OC(=O)N[C@@H](COCc1ccccc1)C(=O)N[C@@H](CO)[C@H](O)[C@@H]1C[C@@H]1C(=O)N1CCCC1,14.3%
4,COCCN(CC(=O)Nc1ccccc1C)S(=O)(=O)c1ccc(S(=O)(=O)N2CCCC2)cc1,6.95%
5,Cn1c(=O)oc2cc(S(=O)(=O)NC3CCCCC3)ccc21,10.9%
6,COc1cc(CNCCc2ccc3c(c2)OCO3)ccc1O.Cl,7.29%
7,COc1ccc([N+](=O)[O-])cc1NC(=O)N(C)Cc1ccco1,8.03%
8,CC(C)c1cccc(C(C)C)c1NC(=O)COC(=O)[C@H](C)NC(N)=O,14.3%
9,CCC1CCCCN1C(=O)c1ccc2c(c1)C(=O)N(c1ccc(C)cc1)C2=O (stereo not drawn),7.87%
10,CN1CCN(c2nc(-c3ccc(Cl)c(Cl)c3)nc3ccccc23)CC1,9.87%
11,CCOCC(=O)N1CCN(c2cccc(Cl)c2)CC1,8.86%
12,CCN(Cc1ccccc1)C(=O)COC(=O)c1c(C)nsc1NC,3.28%
13,O=C(NCCOC(=O)c1ccccc1)c1ccc([N+](=O)[O-])cc1,6.79%
14,COC(=O)c1c(C)[nH]c(C(=O)C(C)OC(=O)C2CC2C)c1C (stereo not drawn),3.56%
15,CS(=O)(=O)Nc1nc2ccccc2[nH]1,15.7%
16,Cc1nc(-c2ccc(F)cc2)c(CC(=O)N(C)CC(=O)Nc2ccc(F)cc2)s1,9.44%
17,Cn1c(=O)[nH]c(=O)c2c1nc1n2CC(COc2ccc3ccccc3c2)O1 (stereo not drawn),5.27%
18,OC(CNCCc1c[nH]c2ccccc12)C(F)(F)F (stereo not drawn),0.293%
19,O=C(N/N=C/c1ccccc1)C1CCCN1C(=O)c1cc([N+](=O)[O-])cc([N+](=O)[O-])c1 (stereo not drawn),12.4%
20,CCCNS(=O)(=O)c1cc2c3c(c1)CCN3C(=O)CC2,14.8%
21,Cn1c(=O)n(CCC(=O)O)c2ccccc21,15.2%
22,O=S(=O)(NCC1CCCO1)c1ccc(S(=O)(=O)N2CCCC2)cc1 (stereo not drawn),13.3%

row,SMILES,"hERG current change (%, negative = inhibition) at 1uM"
1,CC1CC(C)CN(C(=O)Cn2cc(C=O)c3ccccc32)C1 (stereo not drawn),9.78%
2,O=C(O)CSCC(=O)N1CCCN(c2nccc(C(F)(F)F)n2)CC1,13%
3,COc1ccc(NC(=S)N(CCCN2CCOCC2)C(C)c2cc3ccccc3o2)cc1 (stereo not drawn),-63.1%
4,Cc1cccc(NC(=O)c2ccc(S(=O)(=O)N3CCOCC3)cc2)n1,21%
5,CNc1ccc(C(=O)OCC(=O)NCc2ccc3c(c2)OCO3)cc1[N+](=O)[O-],4.8%
6,C=C(C)C1CC=C(C)/C(=N/NC(=O)c2ccc(NC(=O)c3cccc(C)c3)cc2)C1 (stereo not drawn),11.9%
7,COc1ccc(S(=O)(=O)N2CCCC2)cc1C(C)C,12.2%
8,O=C(NCCO)c1cccc(S(=O)(=O)N2CCCCC2)c1,11.1%
9,CCn1cc(/C=N/NC(=O)c2cc3c(ccc4ccccc43)o2)c2ccccc21,-4.32%
10,COc1ccc(OC)c(C2/C(=C(/O)c3ccccc3)C(=O)C(=O)N2Cc2ccco2)c1 (stereo not drawn),13%
11,CCOc1ccc(NS(=O)(=O)c2ccc(NC(C)=O)c(OC)c2)cc1,8.67%
12,O=C(CSc1nnc2ccc(-c3ccccn3)nn12)Nc1ccccc1,11%
13,O=C(CCC(=O)Nc1ccccc1)NCCO,7.93%
14,CC(Sc1cccc[n+]1[O-])C(=O)Nc1cccc([N+](=O)[O-])c1 (stereo not drawn),12.3%
15,N#Cc1cccc(C(c2nnnn2C2CCCC2)N2CCC(Cc3ccccc3)CC2)c1 (stereo not drawn),14.9%
16,CN1CCc2c(sc(N)c2C(=O)c2ccc(Cl)cc2)C1,13.2%
17,Cc1cc(C)c(S(=O)(=O)N2CCCOC2CNC(=O)C(=O)NCCc2c[nH]c3ccccc23)c(C)c1 (stereo not drawn),-1.21%
18,COc1ccc(N/C=C/C(=O)c2cc(OC)c(OC)c(OC)c2)cc1,8.33%
19,CCn1c(CCNS(=O)(=O)c2ccccc2Br)nnc1SC,9.63%
20,O=C(Nc1ccc(OC(F)F)c(Cl)c1)[C@@H]1CCCN1C(=O)c1cccs1,-20.6%
21,NS(=O)(=O)CCCc1ccccc1,12.2%
